# From PubChem BioAssay AID1347428 (National Center for Advancing Translational Sciences (NCATS), 2020)
# Among all 91,000 compounds or so, about 290 (0.32%) were called active. This list was built around the results that the source calls inconclusive (neither active nor inactive); the mix of calls is not that of the screen. The call rests on the fitted dose curve; in most records, active means well fitted inhibition curve with a large enough effect; inconclusive means small, poorly fitted or top-dose-only effect; inactive means no such curve, though single readings can be large or run the other way. A potency beside an inconclusive call is a rough fit, not a confirmed value.
# Target: Single-stranded DNA cytosine deaminase (Homo sapiens) (UniProt Q9GZX7)
# Chain of UniProt Q9GZX7 (Q9GZX7 whole entry, looked up): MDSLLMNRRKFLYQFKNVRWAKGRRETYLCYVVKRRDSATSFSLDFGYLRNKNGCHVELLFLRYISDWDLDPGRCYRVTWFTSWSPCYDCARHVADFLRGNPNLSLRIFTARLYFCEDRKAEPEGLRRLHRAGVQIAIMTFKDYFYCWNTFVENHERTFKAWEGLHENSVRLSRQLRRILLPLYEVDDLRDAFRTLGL
# Assay: Primary qHTS assay for inhibitors of Activation Induced Cytidine Deaminase (AID): AID signal; further: nearly all actives have a fitted effect of over 25% in size
# Conditions: AID deamination FRET fluorescence, UDG-coupled, 4 h; series mostly up to 115 µM
# Potency means the concentration at half of the fitted maximal effect; tags describe the fitted curve by direction and shape.
row,SMILES,Potency
1,CC(C)(C)c1ccc(C2CC2C(=O)N/N=C\C(Br)=C\c2ccccc2)cc1 (stereo not given),"inconclusive: 31.6 µM [inhibitor, partial curve, poor fit]"
2,COc1ccc(C2=CC(c3ccccc3Cl)n3nc(-c4ccc(Cl)cc4)nc3N2)cc1 (stereo not given),"inconclusive: 35.5 µM [inhibitor, partial curve, poor fit]"
3,Cc1ccc(CNC(=O)c2ccc(CSCc3cccc(C)c3)o2)cc1,"inconclusive: 56.2 µM [inhibitor, partial curve, poor fit]"
4,Cc1noc(-c2ccc(NC(C)c3ccccc3)c([N+](=O)[O-])c2)n1 (stereo not given),"inconclusive: 50.1 µM [inhibitor, partial curve, poor fit]"
5,COc1cccc(CN(C(=O)c2oc3ccccc3c2C)C2CCS(=O)(=O)C2)c1 (stereo not given),"inconclusive: 50.1 µM [inhibitor, partial curve, poor fit]"
6,COc1ccc(-c2noc(CSc3nc4ccccc4[nH]3)n2)cc1,inactive
7,O=C(c1cc2ccc3cccnc3c2[nH]1)N1CCN(c2cccc(Cl)c2)CC1,"inconclusive: 20 µM [inhibitor, full curve, poor fit]"
8,Cc1ccc(-n2nc3c(=O)n(C(C)C(=O)NCc4ccccc4C)nc(C)c3c2C)cc1 (stereo not given),"inconclusive: 56.2 µM [inhibitor, partial curve, poor fit]"
9,Cc1csc(CCCCNC(=O)C2(c3ccc(Br)cc3)CC2)n1,inactive
10,COCCCNc1nc(NCc2ccc(C)cc2)c2cnn(C)c2n1,inactive
11,O=C(NCCc1c[nH]c2ccccc12)c1ccc2ccccc2n1,inactive
12,Cc1cccc(N2CCN(C(=O)c3cc4ccc5cccnc5c4[nH]3)CC2C)c1 (stereo not given),active: 35.5 µM
13,Cc1ccc(S(=O)(=O)N2CCCC2c2nc3ccccc3[nH]2)cc1C (stereo not given),inactive
14,CCc1ccccc1N(CC)C(=O)C1CCN(c2ncnc3c2nc2n3CCCCC2)CC1,"inconclusive: 56.2 µM [inhibitor, partial curve, poor fit]"
15,CCCCNC(=O)CN1CCN(c2ncc(NC(=O)c3ccc(Cl)cc3)cc2C(=O)O)CC1,"inconclusive: 100 µM [inhibitor, single point]"
16,COc1ccc(S(=O)(=O)N2CCn3cccc3C2c2cccs2)cc1C (stereo not given),inactive
17,Cc1ccc(O)c(-c2n[nH]c3c2C(c2ccc(F)cc2)N(Cc2ccco2)C3=O)c1 (stereo not given),"inconclusive: 100 µM [inhibitor, single point]"
18,COc1ccc(-c2cc(C(F)(F)F)nc(NCc3ccc(F)cc3)n2)cc1,"inconclusive: 12.6 µM [inhibitor, full curve]"
19,CCCc1ccc(NC(=O)c2n[nH]c(=O)c3ccccc23)cc1,inactive
20,O=C(CSc1nc2cc(Cl)ccc2s1)NC1CCCCCCC1,inactive
21,CCOC(=O)c1cnc2ccc(OCC)cc2c1Nc1ccc(OCc2ccccc2Cl)cc1,"inconclusive: 39.8 µM [inhibitor, single point]"
22,Cc1ccc(SCc2nc(-c3ccc(C(=O)NCC(C)c4ccccc4)cc3)oc2C)cc1 (stereo not given),"inconclusive: 22.4 µM [inhibitor, partial curve, poor fit]"

row,SMILES,Potency
1,COC(=O)c1ccc2c(c1)N(Cc1ccccc1)C(=O)c1ccccc1S2(=O)=O,"inconclusive: 50.1 µM [inhibitor, partial curve, poor fit]"
2,COc1ccccc1-c1nc2cc(NC(=O)c3ccccc3Cl)ccc2o1,"inconclusive: 79.4 µM [inhibitor, partial curve]"
3,Cc1ccc(-c2csc3ncnc(Nc4ccc(C(=O)O)cc4)c23)cc1,"inconclusive: 79.4 µM [inhibitor, partial curve, poor fit]"
4,O=C(/C=C/c1csc(-c2ccccc2)n1)c1ccccc1,"inconclusive: 50.1 µM [inhibitor, partial curve, poor fit]"
5,Cc1ccc(/C=N/Nc2ccc(S(=O)(=O)Nc3ccccc3C(=O)O)cc2[N+](=O)[O-])o1,"inconclusive: 56.2 µM [inhibitor, partial curve, poor fit]"
6,COc1ccc(C(=O)Nc2nc3c(s2)Cc2cc(OC)ccc2-3)cc1,"inconclusive: 39.8 µM [inhibitor, partial curve, poor fit]"
7,Cc1ccccc1NCc1nc2ccccc2n1CCOc1ccccc1,"inconclusive: 22.4 µM [inhibitor, full curve, poor fit]"
8,COC1=C(OC)C(=O)c2ccccc2C1=O,active: 44.7 µM
9,Cc1ccc(C(=O)NCC(c2cccnc2)N2CCc3ccccc3C2)cc1C (stereo not given),"inconclusive: 44.7 µM [inhibitor, partial curve, poor fit]"
10,Cc1nc(-c2ccc(F)cc2)sc1CCNC(=O)c1ccc(C(C)(C)C)cc1,active: 15.8 µM
11,COc1ccccc1-c1nnc(C2CCN(S(=O)(=O)c3ccc(F)c(C)c3)CC2)o1,"inconclusive: 31.6 µM [inhibitor, partial curve, poor fit]"
12,Cc1ccc(-c2cc(C(F)(F)F)on2)cc1S(=O)(=O)NCc1ccc(F)cc1,inactive
13,CC1CCN(C(=O)C(C)Sc2nc(-c3ccccc3)cc(C(F)(F)F)n2)CC1 (stereo not given),"inconclusive: 22.4 µM [inhibitor, partial curve, poor fit]"
14,N#C/C(=C\c1ccc(OCc2ccc(Cl)c(Cl)c2)cc1)C(=O)c1ccccc1,"inconclusive: 39.8 µM [inhibitor, partial curve]"
15,Cn1c(=O)cc(SCC(=O)N2CCN(c3ccccc3)CC2)c2ccccc21,"inconclusive: 89.1 µM [inhibitor, single point]"
16,O=C(Nc1ccccc1)c1sc(NC2CCCCC2)nc1-c1ccc([N+](=O)[O-])cc1,inactive
17,CC(=O)Nc1ccc(Nc2ncnc3sc4c(c23)CCCC4)cc1,inactive
18,CCn1c(CC2C(=O)N(C)c3ccc(Br)cc32)nc2ccccc2c1=O (stereo not given),"inconclusive: 89.1 µM [inhibitor, single point]"
19,CCC1CN(C(=O)N2CCC(C(=O)N3CCN(c4cc(C)ccc4C)CC3)CC2)c2ccccc2O1 (stereo not given),"inconclusive: 39.8 µM [inhibitor, full curve, poor fit]"
20,CCN1CCN(c2oc(COc3ccc(Cl)cc3Cl)nc2C#N)CC1,inactive
21,O=C(NCCc1ccc(Cl)cc1)c1ccc2c(c1)N(Cc1cccc(Cl)c1)C(=O)c1ccccc1S2(=O)=O,"inconclusive: 28.2 µM [inhibitor, partial curve, poor fit]"
22,O=C(CCn1ccc2cc(S(=O)(=O)N3CCCC3)ccc21)NCc1ccccc1Cl,"inconclusive: 50.1 µM [inhibitor, partial curve, poor fit]"

row,SMILES,Potency
1,CCn1nc(C)c2c(-c3ccccc3)cc(=O)n(C(C)C(=O)NCCc3ccccc3)c21 (stereo not given),"inconclusive: 15.8 µM [inhibitor, full curve, poor fit]"
2,CCN(CC)C(=O)COc1ccc(-c2nnc(Nc3ccc(OC)c(C(=O)NC)c3)c3ccccc23)cc1,"inconclusive: 50.1 µM [inhibitor, partial curve, poor fit]"
3,O=C(CCCCCn1c(=O)[nH]c2ccccc2c1=O)NCc1ccc(Cl)cc1,"inconclusive: 44.7 µM [inhibitor, partial curve, poor fit]"
4,CNCCC(Oc1ccccc1C)c1ccccc1 (stereo not given),inactive
5,c1ccc(SC(Sc2ccccc2)=C(Sc2ccccc2)Sc2ccccc2)cc1,inactive
6,Cc1ccc(C)c(N2CCN(C(=O)c3nn(C)c4c3CS(=O)(=O)c3ccccc3-4)CC2)c1,"inconclusive: 15.8 µM [inhibitor, full curve, poor fit]"
7,COCCNC(=O)c1ccc2c(c1)N(Cc1c(F)cccc1Cl)C(=O)c1ccccc1S2,inactive
8,O=c1c2ccccc2nc(N2CCN(c3cccc(Cl)c3)CC2)n1-c1ccccc1,"inconclusive: 31.6 µM [inhibitor, partial curve, poor fit]"
9,O=Cc1c(-c2ccc(Br)cc2)[nH]c2ccccc12,inactive
10,CCc1ccc(/C=C/C(=O)c2ccc(O)cc2)cc1,inactive
11,COc1ccc(CCNC(=O)Cn2nc(C)c3c(C)n(-c4ccc(C)cc4)nc3c2=O)c(OC)c1,"inconclusive: 35.5 µM [inhibitor, full curve]"
12,Cc1ccc(CC(=O)NC2(C)CCCc3ccccc32)cc1 (stereo not given),inactive
13,COC(=O)c1ccccc1NC(=O)CSc1nnc2cc(C)c3cc(C)cc(C)c3n12,"inconclusive: 11.2 µM [inhibitor, full curve, poor fit]"
14,Cc1cccc(C(=O)Nc2nnc(S(=O)(=O)N3CCCc4ccccc43)s2)c1,"inconclusive: 22.4 µM [inhibitor, full curve]"
15,CCOC(=O)c1c(C)n(-c2ccccc2)c2ccc(OC(=O)c3cc(OC)cc(OC)c3)cc12,"inconclusive: 25.1 µM [inhibitor, single point]"
16,O=C(CN1CCN(c2ccc(Cl)cc2)CC1)Nc1ccc(F)c(F)c1,"inconclusive: 20 µM [inhibitor, partial curve, poor fit]"
17,Cc1cc(C)cc(-n2ccnc2SCC(=O)Nc2ccc(C)c(Cl)c2)c1,"inconclusive: 50.1 µM [inhibitor, partial curve, poor fit]"
18,CCOc1ccc2c(c1)cc(C(=O)NC(C)C)n2C,inactive
19,CCn1cc2nc(SCc3cccc(F)c3)n(CCc3ccccc3)c(=O)c2n1,"inconclusive: 44.7 µM [inhibitor, partial curve, poor fit]"
20,CC(NC(=O)C1CC1)c1ccncc1 (stereo not given),inactive
21,CCCSc1nc2c(c(=O)n(C)c(=O)n2C)n1C/C=C/c1ccccc1,"inconclusive: 50.1 µM [inhibitor, partial curve, poor fit]"
